According to the supplement of paper PMC10126150:
Sequences with one replicate were seen in a single cluster, so their values are uncertain.

Test system: ATP
Assay: switch fluorescence ratio, 500 uM ATP over buffer (Cy3 cluster intensity, sum of 5 cycles each) (fold (ratio)); higher = stronger signal-on switching upon ATP binding; sequences stand for … in TCGTCGGCAGCGTCAGATGTGTATAAGAGACAGTTTTTTTTTTTTTTTTTTTTTTTTT…TC
Details: aptamer strand: ATP DNA aptamer (quencher-CACCTGGGGGAGTATTGCGGAGGAAGG + anchor), 100 nM annealed; ATP concentration: 500 uM; one replicate
Procedure, shortened: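 Imaging in selection buffer was followed by imaging after 15 min with 500 uM ATP at 22 °C, for Cy3-labelled switching-strand clusters annealed to 100 nM quencher-labelled ATP aptamer on a modified Illumina MiSeq flow-cell. Five of these buffer/ATP cycles ran, separated by NaOH stripping and re-annealing. The fluorescence ratio per cluster is summed target-cycle over summed buffer-cycle Cy3 intensity, averaged per switch-domain sequence; clusters outside 100-1000 RFU were removed.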
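Also: ATP exposure 15 min at 22 °C before imaging.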

| Sequence | switch fluorescence ratio |
| --- | --- |
| AAGTGATATC | 1.01 |
| AAGTGATGAC | 1.03 |
| AAGTGCAATG | 1.04 |
| AAGTGCACGT | 0.966 |
| AAGTGCGGGG | 0.991 |
| AAGTGGGTCA | 1.03 |
| AAGTGGGTGA | 0.978 |
| AAGTGGTGGA | 0.986 |
| AAGTGTGCG | 0.97 |
| AAGTGTTTTT | 0.996 |
| AAGTTAAGTT | 1.02 |
| AAGTTAGAGT | 1.01 |
| AAGTTATGCG | 0.955 |
| AAGTTGCGCC | 1.01 |
| AAGTTGGCTC | 0.999 |
| AAGTTGGTAT | 0.965 |
| AAGTTTATTG | 1.02 |
| AATAAAGTAA | 0.976 |
| AATAAAGTCC | 0.99 |
| AATAACAGAC | 1.08 |
| AATAACGAC | 1.06 |
| AATAAGACAG | 1 |
| AATAAGTCTA | 1.01 |
| AATAAGTGGG | 1.04 |
| AATAATCCTG | 1.03 |
| AATACCGTTA | 1.03 |

| Sequence | switch fluorescence ratio |
| --- | --- |
| AATACCTCAC | 1.64 |
| AATACGATGG | 1.07 |
| AATACGCTTT | 1.06 |
| AATACGGCGC | 1.04 |
| AATACGGGCT | 1.05 |
| AATACGTGCT | 1.02 |
| AATACTAGAA | 1.01 |
| AATACTATTG | 0.96 |
| AATAGACTTT | 1 |
| AATAGATTTT | 0.996 |
| AATAGCAGGG | 1.08 |
| AATAGCGTCT | 0.971 |
| AATAGGAGGT | 1 |
| AATAGGATGA | 1.01 |
| AATAGGCTCT | 1.01 |
| AATAGGGCGG | 1.02 |
| AATAGTCGTA | 0.985 |
| AATAGTTATG | 0.993 |
| AATAGTTCTT | 1.03 |
| AATATATAAT | 0.996 |
| AATATCGCAG | 1.01 |
| AATATGACAA | 1.01 |
| AATATGCCTG | 0.959 |
| AATATTACTT | 1.04 |
| AATATTCGTA | 1.01 |
| AATATTTAAG | 0.985 |

| Sequence | switch fluorescence ratio |
| --- | --- |
| AATATTTCGT | 0.996 |
| AATCAAAAGG | 1.17 |
| AATCAGGGTT | 0.98 |
| AATCAGTGCA | 0.975 |
| AATCATCAAT | 1.01 |
| AATCATGA | 0.964 |
| AATCCACAGC | 1.15 |
| AATCCCGATC | 1.1 |
| AATCCCGTAT | 0.981 |
| AATCCGGAGG | 1.01 |
| AATCCTAACA | 1.05 |
| AATCCTGGAC | 1.1 |
| AATCGAATCG | 0.985 |
| AATCGCAGAG | 1.02 |
| AATCGGACAA | 1.05 |
| AATCGTAGGA | 1.05 |
| AATCTACACG | 1.09 |
| AATCTAGCTT | 1.01 |
| AATCTATATC | 1.04 |
| AATCTATTCA | 1 |
| AATCTATTTT | 1.02 |
| AATCTCAAGT | 1 |
| AATCTCGGGC | 0.989 |
| AATCTCTCAG | 1.01 |
| AATCTGGACT | 0.987 |
| AATCTTACTT | 0.973 |

| Sequence | switch fluorescence ratio |
| --- | --- |
| AATCTTAGGG | 0.958 |
| AATCTTATTG | 0.962 |
| AATCTTTA | 0.984 |
| AATCTTTGTA | 0.993 |
| AATCTTTTTC | 1.01 |
| AATGAAGTG | 0.987 |
| AATGAATACC | 1 |
| AATGAGAGAC | 1.03 |
| AATGAGATCC | 0.971 |
| AATGAGATGG | 0.964 |
| AATGAGGAGA | 0.988 |
| AATGAGTGA | 0.965 |
| AATGATACGT | 1.01 |
| AATGATCAAC | 1.01 |
| AATGATGCGA | 0.998 |
| AATGATTTGG | 1.01 |
| AATGCAAGGG | 1.04 |
| AATGCACAAG | 0.983 |
| AATGCCCTGC | 0.979 |
| AATGCCGCAT | 1.06 |
| AATGCCTCCA | 1 |
| AATGCGAGGT | 1.01 |
| AATGCGAGTC | 1.03 |
| AATGCGCCGA | 1.04 |
| AATGCGGGCC | 1.01 |
| AATGCTCGCG | 1.01 |

| Sequence | switch fluorescence ratio |
| --- | --- |
| AATGCTGCGT | 1.02 |
| AATGCTTATT | 0.955 |
| AATGCTTGAC | 1.05 |
| AATGCTTGTT | 1.06 |
| AATGGAAA | 0.975 |
| AATGGAAATA | 1.04 |
| AATGGAAGAG | 0.995 |
| AATGGACGAC | 1.09 |
| AATGGATATT | 0.984 |
| AATGGCATT | 1.02 |
| AATGGGAGCG | 0.959 |
| AATGGGGATA | 1.02 |
| AATGGGGTCG | 0.942 |
| AATGGGTCCC | 1.02 |
| AATGGTAATG | 1.07 |
| AATGGTATGA | 0.995 |
| AATGGTCGG | 1 |
| AATGGTGGAC | 1.01 |
| AATGTAAAGG | 0.999 |
| AATGTAGCG | 1.05 |
| AATGTCAAC | 1.03 |
| AATGTCAATC | 1.05 |
| AATGTCCCCT | 1 |
| AATGTCGCCT | 1.02 |
| AATGTCTTTC | 1.06 |
| AATGTGCGCG | 0.994 |

| Sequence | switch fluorescence ratio |
| --- | --- |
| AATGTGGTGG | 0.93 |
| AATGTTACCT | 1.27 |
| AATGTTATCA | 0.978 |
| AATGTTC | 1.01 |
| AATGTTTTAT | 0.992 |
| AATTAAAATC | 1.02 |
| AATTAACAAA | 1.01 |
| AATTACAGCG | 1 |
| AATTACCCA | 0.997 |
| AATTAGAATA | 1.03 |
| AATTAGGTCT | 0.982 |
| AATTAGTTTT | 0.951 |
| AATTATAAAA | 1 |
| AATTATGAAA | 1 |
| AATTCACTGG | 1.05 |
| AATTCAGCTA | 1.04 |
| AATTCATATA | 0.993 |
| AATTCGAAGG | 0.993 |
| AATTCGACCA | 1.03 |
| AATTCGGGGA | 1.02 |
| AATTCGGTT | 1.01 |
| AATTCTTGGT | 0.983 |
| AATTGAATCG | 1.12 |
| AATTGAGCCC | 0.987 |
| AATTGAGCCG | 1.03 |
| AATTGAGGGA | 0.94 |

| Sequence | switch fluorescence ratio |
| --- | --- |
| AATTGAGTAC | 1.01 |
| AATTGAGTTT | 0.946 |
| AATTGATATG | 0.987 |
| AATTGCGAGA | 1.03 |
| AATTGCGCTT | 1.05 |
| AATTGCTCAA | 1.03 |
| AATTGGGTAG | 1.02 |
| AATTGTAATC | 1 |
| AATTGTGGC | 0.987 |
| AATTGTTGAT | 1.02 |
| AATTTATACA | 1.03 |
| AATTTGAGAT | 0.987 |
| AATTTGCTTG | 1.04 |
| AATTTTAGTT | 0.958 |
| AATTTTTAAT | 1.01 |
| AATTTTTGT | 1.01 |
| ACAAAAGCCA | 0.995 |
| ACAAAAGGTG | 1.32 |
| ACAAAGCATA | 1.52 |
| ACAAAGGAT | 1.01 |
| ACAAAGGCAC | 1.03 |
| ACAAAGGTAC | 1.08 |
| ACAAAGTAAT | 1 |
| ACAAAGTTTC | 0.997 |
| ACAAATACTC | 1.61 |
| ACAACCGGT | 0.996 |

| Sequence | switch fluorescence ratio |
| --- | --- |
| ACAACGTATG | 0.964 |
| ACAACTGTCG | 1.1 |
| ACAAGAATA | 1.03 |
| ACAAGATCTG | 0.987 |
| ACAAGGGGTA | 1.02 |
| ACAAGGTCAT | 1.06 |
| ACAAGTGGGC | 1.01 |
| ACAATACAGG | 1.21 |
| ACAATATCGC | 1.04 |
| ACAATATGTC | 1.01 |
| ACAATCTCTA | 1 |
| ACAATGAAG | 1.02 |
| ACAATGAATA | 1.02 |
| ACAATGCTTG | 1.03 |
| ACAATGTGCT | 0.979 |
| ACAATTCGTA | 1.02 |
| ACAATTGGTT | 0.979 |
| ACACACAAGA | 1.28 |
| ACACAGGGGT | 1.96 |
